Results: PubChem BioAssay AID1345082 (National Center for Advancing Translational Sciences (NCATS), 2018)
Hit rate of the full screen: of about 94,000 compounds, about 4,000 (4.3%) were called active. The shares of active, inactive and inconclusive entries below differ from those in the screen. Calls follow the shape of the dose curve; as a rule, active = well fitted inhibition curve with a large enough effect; inconclusive = small, poorly fitted or top-dose-only effect; inactive = no such curve, though single readings can be large or run the other way. Where the call is inconclusive, the potency comes from a doubtful curve fit.
% is scaled to controls: 0 for no effect and ±100 for the full control effect; potency is read from the fitted curve at half-maximal effect; tags tell the direction and shape of the fitted curve.

Experiment: Cytotoxic Profiling in NIH 3T3 Cell Line of Diverse Libraries Using Quantitative High-Throughput Screening; also: nearly all actives have a fitted effect of over 55% in size
Conditions: NIH 3T3 viability, CellTiter-Glo ATP luminescence, 48-72 h; activity change, negative = cytotoxicity: at 96.7 µM (top of the series); series mostly up to 96.7 µM
In short: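 ATP-dependent luminescence (CellTiter-Glo) served as the viability signal for NIH 3T3 cells treated with compound for 48 or 72 hr at 37 °C.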
In the case of Cc1cc(C(=O)N2CCC(Cc3ccc(COCc4ccncc4)cc3)CC2)n(C)n1, the Potency is reported as inconclusive: 39.8 µM [inhibitor, partial curve, poor fit].
For O=C(O)c1cccc2c1CCN2C(=O)c1ccccc1, the “activity change, negative = cytotoxicity” value was inactive: -7.47%.
For Cc1ccccc1CN1CCC2(CC1)OCCN(CCc1ccccc1)C2=O, the Potency was inconclusive: 89.1 µM [inhibitor, partial curve, poor fit].
With O=C(COc1ccc(F)cc1)N1CCC2(CC1)NC(=O)N(c1ccccc1Cl)N2 the Potency was inconclusive: 28.2 µM [inhibitor, full curve].
In the case of Cc1cnc(C2CC2)n1C1CCN(S(=O)(=O)c2ccc(C#N)cc2)CC1, the “activity change, negative = cytotoxicity” value is reported as inactive: -22.6%.
In the case of COCC1CCN(c2ccc(-c3nc(CCCc4ccccc4)no3)cn2)C1 (stereo unspecified), the Potency is reported as inconclusive: 35.5 µM [inhibitor, partial curve].
With COCCN1C(=O)Cc2ccccc2C1C(=O)NCc1ccc(N2CCCCC2)cc1 (stereo unspecified) the “outcome” value was “inactive”.
For COc1ccc(-n2c(=O)c(C(=O)NCc3ccc(C(F)(F)F)cc3)nc3cccnc32)cc1, the Potency was inconclusive: 70.8 µM [inhibitor, single point].
In the case of COc1ccc(CCC(=O)N2CCCCCCN(C)C(=O)[C@@H]3CCC[C@@H]32)cc1, the “activity change, negative = cytotoxicity” value is reported as inactive: -11.3%.
In the case of CC(C)CNC(=O)c1nnn2c1COC(c1ccc(Br)cc1)C2 (stereo unspecified), the “activity change, negative = cytotoxicity” value is reported as inactive: -19.1%.
In the case of COC[C@@H]1CN(C(=O)c2cc3ccccc3[nH]2)C[C@H]1c1nc(C)no1, the “activity change, negative = cytotoxicity” value is reported as inactive: 1.4%.
In the case of CCCCCNC(=O)C1CCCN1c1nccc(Nc2ccc(C)cc2)n1 (stereo unspecified), the Potency is reported as inconclusive: 56.2 µM [inhibitor, partial curve, poor fit].
For Cc1noc(C)c1[S+](=O)([O-])NC1CCN(Cc2cccc(-c3ccc(F)c(F)c3)c2)CC1, the Potency was active: 14.1 µM.
With O=C1CC(c2ccccc2)N(C(=O)CNS(=O)(=O)c2cccc3cccnc23)CCCCCCN1 (stereo unspecified) the Potency was inconclusive: 79.4 µM [inhibitor, single point].
For O=C(NCc1ccncc1)C1CCN(C(=O)c2ncn3c2COC(c2ccc(F)cc2)C3)CC1 (stereo unspecified), the “outcome” value was “inactive”.
In the case of O=C(O)CCn1ncc2cc(OC3CCN(C(=O)COc4ccccc4)CC3)ccc21, the Potency is reported as active: 50.1 µM.
With COCCn1ncc(N2CCCC(CC(=O)Nc3cc(OC)cc(OC)c3)C2)cc1=O (stereo unspecified) the Potency was inconclusive: 70.8 µM [inhibitor, single point].
For Cc1cn2nc(C(=O)N3CCN(c4ccccn4)CC3)cc2c(N2CCCC2)n1, the Potency was inconclusive: 50.1 µM [inhibitor, partial curve, poor fit].
With O=S(=O)(N[C@H]1[C@H](O)[C@H](O)C[C@@H]1c1ccc(C(F)(F)F)nc1)c1ccc(Cl)cc1 the “activity change, negative = cytotoxicity” value was inactive: -25%.
For COc1ccc(CC(=O)NC2CCN(c3ccc4nnc(C5CC5)n4n3)CC2)cc1, the Potency was inconclusive: 39.8 µM [inhibitor, partial curve].
With Cc1csc2c(NCCC3CN(c4cnn(C)c(=O)c4)CCO3)ncnc12 (stereo unspecified) the Potency was inconclusive: 50.1 µM [inhibitor, partial curve, poor fit].
With COc1ccc(Cn2c(C3CCN(C(=O)c4ccc(F)cc4)CC3)n[nH]c2=O)cc1 the Potency was inconclusive: 70.8 µM [inhibitor, partial curve, poor fit].
With CCCN(CC1CC1)C(=O)c1coc(COc2ccc3sc(C)nc3c2)n1 the Potency was inconclusive: 44.7 µM [inhibitor, partial curve, poor fit].
For O=C1NCC2(CCN(Cc3ccc(C(F)(F)F)cc3)CC2)Oc2ccccc21, the Potency was inconclusive: 11.2 µM [inhibitor, full curve, poor fit].
In the case of O=C(Nc1cccc(C(F)(F)F)c1)O[C@@H]1CO[C@H]2[C@@H]1OC[C@@H]2NC(=S)Nc1ccc(Cl)cc1, the Potency is reported as inconclusive: 44.7 µM [inhibitor, partial curve, poor fit].
For CC(C)c1ccc(Nc2n[nH]c(C(O)c3ccccc3)n2)cc1 (stereo unspecified), the Potency was inconclusive: 79.4 µM [inhibitor, partial curve, poor fit].
For COc1cccc(N2C(=O)NC(=NC3CCCCC3)C23CCN(C(=O)c2ccccc2F)C3)c1 (stereo unspecified), the Potency was inconclusive: 44.7 µM [inhibitor, partial curve, poor fit].
With O=C(NCc1nc(-c2ncccn2)no1)C(c1cccnc1)N1CCCC1 (stereo unspecified) the “activity change, negative = cytotoxicity” value was inactive: 1.33%.
With C[C@H]1CCCN1C(=O)c1nnc(COc2cccc(C(F)(F)F)c2)n1-c1cccnc1 the Potency was active: 100 µM.
With O=c1n(-c2ccc(Cl)cc2)nc2n1CCN(CC1CCCCC1)C2 the Potency was inconclusive: 79.4 µM [inhibitor, partial curve].
With Cc1ccc(Nc2ccnc(N3CCCC3C(=O)NC3CC3)n2)cc1 (stereo unspecified) the “activity change, negative = cytotoxicity” value was inactive: -18.6%.
With CN(Cc1ccccc1)Cc1cn([C@H]2CO[C@H]3[C@@H]2OC[C@@H]3NS(C)(=O)=O)nn1 the “activity change, negative = cytotoxicity” value was inactive: -3.96% [at 174 µM].
With CCOc1ccccc1NC(=O)N1CCCN(C)c2ccccc21 the Potency was inconclusive: 31.6 µM [inhibitor, full curve].
In the case of O=C(NCCC1CCN(C(=O)Nc2cc(F)cc(F)c2)CC1)c1ccccc1, the “activity change, negative = cytotoxicity” value is reported as inactive: -25.5%.
For COc1cc2c(cc1OC)C(CNC(=O)c1cccs1)N(C(=O)Nc1ccccc1)CC2 (stereo unspecified), the “activity change, negative = cytotoxicity” value was inactive: -16.6%.
For COc1ccc(CCCN2C(=O)O[C@@H]3CN(C4CCOCC4)C[C@@H]32)cc1, the “activity change, negative = cytotoxicity” value was inactive: 3.93%.
In the case of CC(C)C(=O)N1CCC(CCOc2ccccc2F)C1 (stereo unspecified), the Potency is reported as inconclusive: 50.1 µM [inhibitor, partial curve, poor fit].
In the case of CC(=O)N1CCN(C(=O)c2cn3cc(-c4ccc(C)cc4)sc3n2)CC1, the Potency is reported as inconclusive: 50.1 µM [inhibitor, partial curve, poor fit].
For O=C(CNC(=O)c1cccc(-c2ccsc2)c1)NCc1ccc(Cl)cc1, the “activity change, negative = cytotoxicity” value was inactive: -17.2%.
In the case of COC[C@@H]1CN(Cc2cc(C)nn2C)C[C@H]1C(=O)NC1CC1, the “activity change, negative = cytotoxicity” value is reported as inactive: -6.58%.
In the case of COCCN[C@@H]1C[C@@H]2c3[nH]c4ccccc4c3C[C@@H](C(=O)OC)N2[C@H](c2cccc(OC)c2)C1, the Potency is reported as inconclusive: 20 µM [inhibitor, full curve, poor fit].
With COc1ccccc1-c1[nH]nc2ncc(-c3cccnc3OC)nc12 the Potency was active: 10 µM.
For FC(F)(F)c1cccc(C2=NOC3(CCN(Cc4ccncc4)CC3)C2)c1, the Potency was inconclusive: 44.7 µM [inhibitor, partial curve, poor fit].
In the case of Cc1nn(Cc2ccccc2)c(C)c1[C@@H]1C=C[C@@H](NC(=O)CCCC(=O)O)C1, the “activity change, negative = cytotoxicity” value is reported as inactive: 3.02% [at 138 µM].
With Cc1ccsc1CN1CCCN(S(C)(=O)=O)C(c2ccccc2)CC(=O)NCC1 (stereo unspecified) the “activity change, negative = cytotoxicity” value was inactive: -9.53%.
In the case of O=S(=O)(NCC1Cn2cccc2CN1Cc1ccccc1)c1ccccc1 (stereo unspecified), the Potency is reported as inconclusive: 50.1 µM [inhibitor, partial curve, poor fit].
With COCCNC(=O)[C@H]1C[C@H](Oc2ccccc2)CN1Cc1cccc(C)c1 the “activity change, negative = cytotoxicity” value was inactive: -23.8%.
In the case of O=C(Cn1nc2c(cc1=O)CCCC2)N1CCSCC1, the “outcome” value is reported as “inactive”.
For Cc1nn(-c2ccccc2)c2c1C(C)N(C1CN(C(=O)C3CCCC3)C1)C2=O (stereo unspecified), the Potency was inconclusive: 50.1 µM [inhibitor, partial curve, poor fit].
With O=C(c1ccc(Cl)cc1)N1CCC(n2cc(-c3nc(-c4ccccc4)no3)nn2)CC1 the Potency was inconclusive: 31.6 µM [inhibitor, partial curve, poor fit].
With C[C@H]1[C@@H]2[C@@H](O)C([C@H](C)C(=O)N3CCCC3)CC[C@@]2(C)CC[C@@H]1NC(=O)COc1ccccc1 (stereo partly specified) the Potency was inconclusive: 44.7 µM [inhibitor, partial curve, poor fit].
For Cc1cn2nc(C(=O)NCCCc3ccccc3)cc2c(=O)[nH]1, the “activity change, negative = cytotoxicity” value was inactive: -25.1%.
For COC1C(=O)N(c2cccc(F)c2)C12CCN(C(=O)Nc1ccccc1F)CC2 (stereo unspecified), the “activity change, negative = cytotoxicity” value was inactive: -7.92%.
With COc1ccnc(-c2nnc3ccc(N4C[C@@H](C)O[C@@H](C)C4)nn23)c1 the Potency was active: 31.6 µM.
In the case of O=C1Nc2ccccc2CC12CCN2Cc1ccc(C(F)(F)F)cc1 (stereo unspecified), the Potency is reported as inconclusive: 50.1 µM [inhibitor, partial curve, poor fit].
In the case of CC(C)(Oc1nn(Cc2cccc(Cl)c2)c2ccccc12)C(=O)N1CCN(CCO)CC1, the Potency is reported as inconclusive: 70.8 µM [inhibitor, single point].
With Cc1cc(=O)n(CC(=O)Nc2ccccc2C)c(-c2ccc(F)cc2)n1 the Potency was inconclusive: 44.7 µM [inhibitor, partial curve, poor fit].
In the case of COc1cccc(C(=O)N2CCC(N3C(=O)c4c(c(C)nn4-c4ccccc4)C3C)CC2)c1 (stereo unspecified), the Potency is reported as inconclusive: 50.1 µM [inhibitor, partial curve, poor fit].
For COc1ccc(-c2nc(C(C)C)nc3c2CN([S+](=O)([O-])c2cccs2)CC3)cc1, the Potency was inconclusive: 10 µM [inhibitor, full curve].
In the case of Clc1ccc(C2Cn3nnc(-c4nc(C5CC5)no4)c3CO2)cc1 (stereo unspecified), the Potency is reported as inconclusive: 56.2 µM [inhibitor, partial curve, poor fit].
For CNC(=O)CCn1ncc2cc(OCc3ccccc3-c3cncc(OC)c3)ccc21, the Potency was inconclusive: 56.2 µM [inhibitor, partial curve, poor fit].
In the case of O=C(c1ccc(C(F)(F)F)cc1)N1CCc2nc(C3CC3)nc(-c3ccc(Cl)cc3)c2C1, the Potency is reported as inconclusive: 70.8 µM [inhibitor, single point].
With CCCNC(=O)N1CCCC1C(=O)Nc1ccccc1-c1ccc(OC)cc1 (stereo unspecified) the “activity change, negative = cytotoxicity” value was inactive: -23.8%.
In the case of Cc1ccc(C(=O)N2CCC3(CC2)NC(=O)N(c2ccccc2Cl)N3)c(C)c1, the Potency is reported as inconclusive: 50.1 µM [inhibitor, partial curve, poor fit].
With CC(C)C(=O)N1CCC2(CCNC(=O)CC2)CC1 the “activity change, negative = cytotoxicity” value was inactive: -0.987%.
In the case of O=C(c1ccc(F)c(F)c1)N1CCC(Oc2ncccc2C(=O)N2CCCCC2)C1 (stereo unspecified), the Potency is reported as inconclusive: 70.8 µM [inhibitor, single point].
